Source: the supplement of paper PMC11741623
Some of the results follow. Interaction screen of human proteins with wild-type SARS-CoV-2 proteins by split-DHFR complementation in yeast, 1 µg/mL methotrexate. Value = fitness of the pair (three or more lineages) minus that of the viral protein without a human partner, on a scale set by negative (0) and fused positive (1) controls, mean of up to three cultures; higher = more likely to interact. Active = false discovery rate below 0.05 (one-sided t-test) in at least one culture. Nearly all pairs are not hits, and differences among them are mostly noise (correlation between cultures about 0.3); most hits were seen in one culture only. Human sequences are the Swiss-Prot entries looked up by gene name; the clone may be another isoform. NSP2 values were corrected by the authors for a growth advantage. Listed are human proteins with a hit and a random twelfth of the others.

Assays:
Assay in all cases: yeast fitness gain over the viral ORF with no human partner (scaled fitness); higher = more likely to interact
SARS-CoV-2 M = biological target: SARS-CoV-2 M
Protocol: (§1)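 Split mouse DHFR complementation in pooled diploid yeast: human ORFeome clones carry one fragment and viral ORFs the other; barcoded lineages compete in 1 µg/mL methotrexate and fitness is read by barcode sequencing in up to three cultures.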

SARS-CoV-2 NSP1 = biological target: SARS-CoV-2 NSP1
Protocol: as §1

SARS-CoV-2 NSP10 = biological target: SARS-CoV-2 NSP10
Protocol: as §1

SARS-CoV-2 NSP12 = biological target: SARS-CoV-2 NSP12
Protocol: as §1

SARS-CoV-2 NSP13 = biological target: SARS-CoV-2 NSP13
Protocol: as §1

SARS-CoV-2 NSP15 = biological target: SARS-CoV-2 NSP15
Protocol: as §1

SARS-CoV-2 NSP16 = biological target: SARS-CoV-2 NSP16
Protocol: as §1

SARS-CoV-2 NSP2 = biological target: SARS-CoV-2 NSP2
Protocol: as §1

SARS-CoV-2 NSP5 = biological target: SARS-CoV-2 NSP5
Protocol: as §1

SARS-CoV-2 NSP6 = biological target: SARS-CoV-2 NSP6
Protocol: as §1

SARS-CoV-2 NSP7 = biological target: SARS-CoV-2 NSP7
Protocol: as §1

SARS-CoV-2 NSP8 = biological target: SARS-CoV-2 NSP8
Protocol: as §1

SARS-CoV-2 ORF10 = biological target: SARS-CoV-2 ORF10
Protocol: as §1

SARS-CoV-2 ORF3B = biological target: SARS-CoV-2 ORF3B
Protocol: as §1

SARS-CoV-2 ORF6 = biological target: SARS-CoV-2 ORF6
Protocol: as §1

SARS-CoV-2 ORF7A = biological target: SARS-CoV-2 ORF7A
Protocol: as §1

SARS-CoV-2 ORF7B = biological target: SARS-CoV-2 ORF7B
Protocol: as §1

SARS-CoV-2 ORF8 = biological target: SARS-CoV-2 ORF8
Protocol: as §1

SARS-CoV-2 ORF9B = biological target: SARS-CoV-2 ORF9B
Protocol: as §1

[1] = biological target: SARS-CoV-2 ORF9Bwu (the 73-codon ORF)
Protocol: as §1

SARS-CoV-2 S = biological target: SARS-CoV-2 S
Protocol: as §1

SARS-CoV-2 N = biological target: SARS-CoV-2 N
Protocol: as §1

SARS-CoV-2 NSP14 = biological target: SARS-CoV-2 NSP14
Protocol: as §1

SARS-CoV-2 NSP4 = biological target: SARS-CoV-2 NSP4
Protocol: as §1

SARS-CoV-2 NSP9 = biological target: SARS-CoV-2 NSP9
Protocol: as §1

SARS-CoV-2 ORF3A = biological target: SARS-CoV-2 ORF3A
Protocol: as §1

Measured: yeast fitness gain

B1: LRTM2, Q8N967 (protein)
chain: MLAPGSSPGQRGRLALQWRQVSWITCWIALYAVEALPTCPFSCKCDSRSLEVDCSGLGLTTVPPDVPAATRTLLLLNNKLSALPSWAFANLSSLQRLDLSNNFLDRLPRSIFGDLTNLTELQLRNNSIRTLDRDLLRHSPLLRHLDLSINGLAQLPPGLFDGLLALRSLSLRSNRLQNLDRLTFEPLANLQLLQVGDNPWECDCNLREFKHWMEWFSYRGGRLDQLACTLPKELRGKDMRMVPMEMFNYCSQLEDENSSAGLDIPGPPCTKASPEPAKPKPGAEPEPEPSTACPQKQRHRPASVRRAMGTVIIAGVVCGVVCIMMVVAAAYGCIYASLMAKYHRELKKRQPLMGDPEGEHEDQKQISSVA
inactive: SARS-CoV-2 M -0.0185 | SARS-CoV-2 NSP1 = -0.0672 | SARS-CoV-2 NSP10 = 0.0559 | SARS-CoV-2 NSP12 = -0.0544 | SARS-CoV-2 NSP13 = -0.135 | SARS-CoV-2 NSP15 = 0.00149 | SARS-CoV-2 NSP16 = -0.115 | SARS-CoV-2 NSP2 = -0.118 | SARS-CoV-2 NSP5 = -0.0634 | SARS-CoV-2 NSP6 = 0.0451 | SARS-CoV-2 NSP7 = -0.0223 | SARS-CoV-2 NSP8 = 0.068 | SARS-CoV-2 ORF10 = -0.0511 | SARS-CoV-2 ORF3B 0.00522 | SARS-CoV-2 ORF6 = 0.00569 | SARS-CoV-2 ORF7A -0.172 | SARS-CoV-2 ORF7B 0.0226 | SARS-CoV-2 ORF8 = 0.105 | SARS-CoV-2 ORF9B -0.028 | [1] 0.0197 | SARS-CoV-2 S -0.101

B2: RIMKLB, Q9ULI2 (protein)
chain: MCSSVAAKLWFLTDRRIREDYPQKEILRALKAKCCEEELDFRAVVMDEVVLTIEQGNLGLRINGELITAYPQVVVVRVPTPWVQSDSDITVLRHLEKMGCRLMNRPQAILNCVNKFWTFQELAGHGVPLPDTFSYGGHENFAKMIDEAEVLEFPMVVKNTRGHRGKAVFLARDKHHLADLSHLIRHEAPYLFQKYVKESHGRDVRVIVVGGRVVGTMLRCSTDGRMQSNCSLGGVGMMCSLSEQGKQLAIQVSNILGMDVCGIDLLMKDDGSFCVCEANANVGFIAFDKACNLDVAGIIADYAASLLPSGRLTRRMSLLSVVSTASETSEPELGPPASTAVDNMSASSSSVDSDPESTERELLTKLPGGLFNMNQLLANEIKLLVD
inactive: SARS-CoV-2 M 0.00425 | SARS-CoV-2 NSP1 = 0.113 | SARS-CoV-2 NSP10 = -0.00707 | SARS-CoV-2 NSP12 = 0.0226 | SARS-CoV-2 NSP13 = -0.00558 | SARS-CoV-2 NSP16 = 0.00815 | SARS-CoV-2 NSP2 = -0.243 | SARS-CoV-2 NSP5 = 0.0397 | SARS-CoV-2 NSP6 = -9.4e-05 | SARS-CoV-2 NSP7 = -0.126 | SARS-CoV-2 ORF3B -0.00509 | SARS-CoV-2 ORF6 = -0.0451 | SARS-CoV-2 ORF8 = -0.131 | SARS-CoV-2 ORF9B -0.0268 | SARS-CoV-2 S -0.111

B3: C16orf48, Q9H0I2 (protein)
chain: MCEGPSRISGPIPPDPTLCPDNYRRPTSAQGRLEGNALKLDLLTSDRALDTTAPRGPCIGPGAGEILERGQRGVGDVLLQLEGISLGPGASLKRKDPKDHEKENLRRIREIQKRFREQERSREQGQPRPLKALWRSPKYDKVESRVKAQLQEPGPASGTESAHFLRAHSRCGPGLPPPHVSSPQPTPPGPEAKEPGLGVDFIRHNARAAKRAPRRHSCSLQVLAQVLEQQRQAQEHYNATQKGHVPHYLLERRDLWRREAEARKQSQPDPAMPPGHTRMPENQRLETLTKLLQSQSQLLRELVLLPAGADSLRAQSHRAELDRKLVQVEEAIKIFSRPKVFVKMDD
inactive: SARS-CoV-2 M 0.0705 | SARS-CoV-2 N -0.127 | SARS-CoV-2 NSP1 = -0.00117 | SARS-CoV-2 NSP10 = -0.00548 | SARS-CoV-2 NSP12 = -0.0253 | SARS-CoV-2 NSP13 = -0.000632 | SARS-CoV-2 NSP14 = 0.099 | SARS-CoV-2 NSP15 = 0.0324 | SARS-CoV-2 NSP16 = 0.0167 | SARS-CoV-2 NSP2 = -0.162 | SARS-CoV-2 NSP4 = -0.0705 | SARS-CoV-2 NSP5 = -0.00229 | SARS-CoV-2 NSP6 = -0.0276 | SARS-CoV-2 NSP7 = 0.0996 | SARS-CoV-2 NSP8 = -0.0673 | SARS-CoV-2 NSP9 = -0.108 | SARS-CoV-2 ORF10 = 0.032 | SARS-CoV-2 ORF3A 0.0696 | SARS-CoV-2 ORF3B -0.0561 | SARS-CoV-2 ORF6 = 0.0623 | SARS-CoV-2 ORF7A 0.0104 | SARS-CoV-2 ORF7B -0.091 | SARS-CoV-2 ORF8 = 0.0231 | SARS-CoV-2 ORF9B 0.0323 | [1] -0.0275 | SARS-CoV-2 S 0.0674

B4: C1orf85, Q8WWB7 (protein)
chain: MRGSVECTWGWGHCAPSPLLLWTLLLFAAPFGLLGEKTRQVSLEVIPNWLGPLQNLLHIRAVGTNSTLHYVWSSLGPLAVVMVATNTPHSTLSVNWSLLLSPEPDGGLMVLPKDSIQFSSALVFTRLLEFDSTNVSDTAAKPLGRPYPPYSLADFSWNNITDSLDPATLSATFQGHPMNDPTRTFANGSLAFRVQAFSRSSRPAQPPRLLHTADTCQLEVALIGASPRGNRSLFGLEVATLGQGPDCPSMQEQHSIDDEYAPAVFQLDQLLWGSLPSGFAQWRPVAYSQKPGGRESALPCQASPLHPALAYSLPQSPIVRAFFGSQNNFCAFNLTFGASTGPGYWDQHYLSWSMLLGVGFPPVDGLSPLVLGIMAVALGAPGLMLLGGGLVLLLHHKKYSEYQSIN
inactive: SARS-CoV-2 M 0.0876 | SARS-CoV-2 NSP1 = 0.0432 | SARS-CoV-2 NSP12 = -0.0779 | SARS-CoV-2 NSP13 = 0.0945 | SARS-CoV-2 NSP2 = -0.161 | SARS-CoV-2 NSP6 = 0.0753 | SARS-CoV-2 NSP7 = 0.116 | SARS-CoV-2 ORF6 = -0.0181 | SARS-CoV-2 ORF7A 0.167 | SARS-CoV-2 ORF7B 0.000927 | SARS-CoV-2 ORF8 = 0.021 | SARS-CoV-2 ORF9B 0.0639 | SARS-CoV-2 S -0.248
